In the supplement of paper PMC12217912:
The list shows a part of the results. The full chains were built here from the parent and the listed change. Inactive controls read about 0.05.

B1: TEV protease; numbered along this chain (parent)
chain: MGESLFKGPRDYNPISSSICHLTNESDGHTTSLYGIGFGPFIITNKHLFRRNNGTLVVQSLHGVFKVKDTTTLQQHLVDGRDMIIIRMPKDFPPFPQKLKFREPQREERICLVTTNFQTKSMSSMVSDTSCTFPSGDGIFWKHWIQTKDGQCGSPLVSTRDGFIVGIHSASNFTNTNNYFTSVPKNFMELLTNQEAQQWVSGWRLNADSVLWGGHKVFMVKPEEPFQPVKEATQL

Variants of: B1
Test: raw area under fraction-flipped curve 0-4 h after induction (AUC4h, not background-subtracted), DNA-recorder readout of cleavage of the substrate (dimensionless); higher = more cleavage of the substrate by the protease variant
Details: temperature: 34 °C; time window: 0-4 h after rhamnose induction
Method: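 In vivo DNA recorder in E. coli TOP10(DE3) ΔrhaA at 34 °C. Each TEVp single-site mutant (parent TEVp 0) is paired with a single-site variant of the 7-mer TEVs (canonical ENLYFQ|S). The substrate sits between flexible linkers in a Bxb1-sfGFP-TEVs-SsrA fusion, so cleavage stabilises Bxb1 and speeds flipping of a recombination array, read by NGS. The value is the raw area under the fraction-flipped curve over 0-4 h after rhamnose induction (AUC4h), with ≥20 reads per time point. It is not background-subtracted; inactive controls average about 0.047.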
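Further: Bxb1 expression induced with 0.2% (w/v) L-rhamnose at OD600 near 0.5, cultures sampled hourly, flipped fraction per protease–substrate barcode pair counted by paired-end Illumina sequencing.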

Variant | area with substrate ENLAFQS | area with substrate ENLDFQS | area with substrate ENLEFQS | area with substrate ENLFFQS | area with substrate ENLKFQS | area with substrate ENLNFQS | area with substrate ENLPFQS | area with substrate ENLQFQS | area with substrate ENLRFQS | area with substrate ENLSFQS | area with substrate ENLTFQS | area with substrate ENLWFQS | area with substrate ENLCFQS | area with substrate ENLHFQS | area with substrate ENLLFQS | area with substrate ENLGFQS | area with substrate ENLIFQS | area with substrate ENLMFQS | area with substrate ENLVFQS
P14F | 0.0651 | 0.0682 | 0.0724 | 0.0814 | 0.0758 | 0.0459 | 0.0708 | 0.0631 | 0.0587 | 0.0601 | 0.0648 | 0.0053 |  |  |  |  |  |  | 
L5S | 0.0658 | 0.0601 |  | 0.114 |  | 0.0361 | 0.0575 | 0.0759 |  |  |  |  | 0.0657 | 0.0406 | 0.0657 |  |  |  | 
L5G | 0.0622 | 0.0704 | 0.0709 | 0.0825 | 0.0755 | 0.0411 |  | 0.0583 | 0.072 | 0.071 |  | 0.0416 | 0.092 | 0.0673 | 0.0741 | 0.081 | 0.0682 | 0.0723 | 0.0688
V58C | 0.0632 | 0.0678 |  | 0.0819 |  |  | 0.0614 |  | 0.0985 | 0.0621 |  |  | 0.0649 | 0.0729 | 0.0537 |  | 0.0826 |  | 0.0627
V58A | 0.0594 |  |  |  |  |  |  | 0.0417 | 0.0794 | 0.0526 |  |  |  |  |  |  |  |  | 
T31M | 0.0766 |  | 0.0671 | 0.0795 | 0.0728 | 0.0658 | 0.0525 | 0.0608 | 0.0491 | 0.0435 |  |  |  |  | 0.0588 |  |  | 0.115 | 
K7C | 0.0483 |  | 0.0666 |  | 0.067 | 0.0606 |  |  | 0.0676 | 0.0457 |  |  |  | 0.0651 |  |  |  |  | 0.0764
K7M | 0.0547 | 0.0684 |  | 0.0785 | 0.0851 | 0.0765 |  |  |  | 0.0752 |  |  |  |  | 0.0677 |  |  |  | 
N53H | 0.0641 | 0.0828 | 0.0216 | 0.0761 | 0.0728 | 0.0649 | 0.0609 |  | 0.0589 |  |  | 0.0648 | 0.0586 | 0.0626 | 0.0551 |  | 0.0635 | 0.0539 | 
N53K | 0.0848 | 0.062 |  |  | 0.0677 | 0.0618 | 0.0705 | 0.0643 | 0.0631 | 0.076 | 0.0614 |  | 0.0897 | 0.07 | 0.0864 | 0.0625 |  | 0.0742 | 0.0934
F49T | 0.0502 | 0.0744 |  | 0.0614 | 0.0626 |  |  | 0.0598 | 0.0621 | 0.0645 | 0.0627 | 0.04 | 0.0532 |  | 0.0655 |  | 0.065 |  | 0.075
F49L | 0.106 | 0.0641 |  | 0.0673 | 0.061 | 0.0713 | 0.063 |  |  |  |  |  |  | 0.0401 | 0.0703 | 0.0454 |  |  | 
F49N | 0.0783 | 0.0532 | 0.0613 |  | 0.0639 | 0.0584 |  |  | 0.057 |  | 0.061 | 0.0246 | 0.058 | 0.0667 | 0.0553 |  |  |  | 0.048
I19D | 0.0476 | 0.0514 | 0.0515 | 0.0558 | 0.045 | 0.0457 | 0.0227 | 0.0262 | 0.0555 | 0.0258 |  | 0.046 | 0.0559 | 0.0461 | 0.0458 |  | 0.0559 |  | 0.0433
S60N | 0.07 | 0.0631 |  | 0.048 | 0.0726 | 0.0671 | 0.056 |  | 0.0668 | 0.0643 |  | 0.0522 |  | 0.0727 |  | 0.0354 | 0.072 |  | 
G2P | 0.0771 |  | 0.0604 | 0.0997 | 0.0933 | 0.0549 | 0.068 | 0.0854 |  | 0.0647 | 0.0927 |  | 0.0769 | 0.0744 |  |  | 0.093 | 0.0678 | 0.0962
T55W | 0.071 | 0.0628 | 0.0314 | 0.0769 | 0.075 | 0.0548 |  | 0.0644 | 0.057 | 0.0559 |  | 0.0693 | 0.0647 | 0.0608 |  |  | 0.0777 |  | 0.0505
C20I | 0.0591 | 0.0578 | 0.0279 | 0.0723 | 0.0776 | 0.066 | 0.07 | 0.0723 | 0.072 | 0.0553 |  |  |  | 0.0823 | 0.0762 | 0.067 |  |  | 0.0839
Q59C | 0.0824 | 0.0625 |  | 0.0844 | 0.066 | 0.0627 | 0.0571 | 0.0936 |  |  |  |  |  | 0.0697 | 0.0757 |  |  | 0.0611 | 
Q59W | 0.0614 | 0.0637 |  | 0.0778 | 0.0852 | 0.0647 | 0.0604 | 0.0625 |  | 0.0739 |  | 0.0519 | 0.0724 | 0.0855 | 0.0729 | 0.0802 |  |  | 0.0722
Q59S | 0.0631 | 0.0942 |  | 0.0983 | 0.0743 |  | 0.0498 |  | 0.078 | 0.0719 |  |  |  | 0.0719 | 0.025 | 0.0428 | 0.122 |  | 0.0659
R51T | 0.0833 |  | 0.0666 | 0.0986 |  | 0.0525 | 0.0449 |  |  |  |  |  | 0.0936 |  |  |  | 0.0903 |  | 0.0813
R50S | 0.0569 | 0.0573 | 0.0707 | 0.0826 | 0.0828 | 0.0485 | 0.0593 |  |  |  |  |  | 0.0702 |  |  |  |  |  | 
R50T | 0.0775 | 0.0656 | 0.0587 | 0.0908 | 0.0829 | 0.0681 | 0.0603 |  | 0.0726 | 0.0572 |  | 0.0757 | 0.0468 | 0.0588 | 0.0457 |  | 0.0672 |  | 0.0611
R50A | 0.0747 | 0.062 | 0.0593 | 0.0917 | 0.0783 | 0.067 | 0.0561 | 0.0783 | 0.0707 | 0.0522 |  | 0.0769 |  | 0.0665 | 0.0576 |  | 0.0774 |  | 
K68S | 0.061 |  |  | 0.0803 | 0.0795 | 0.0818 | 0.0617 |  | 0.0698 | 0.0726 | 0.0738 |  |  |  | 0.0628 |  |  |  | 
T30M | 0.0719 | 0.0797 | 0.0725 | 0.0978 | 0.0858 |  |  | 0.0671 |  | 0.0685 |  | 0.057 |  | 0.0907 | 0.0902 |  | 0.0927 |  | 0.0861
T30H | 0.0689 | 0.068 | 0.0687 | 0.0835 | 0.0785 | 0.0573 | 0.0631 | 0.0677 | 0.0758 | 0.0586 |  | 0.0449 |  | 0.0673 | 0.0829 |  | 0.0898 |  | 0.0529
N24I | 0.06 | 0.0622 | 0.0825 | 0.0678 | 0.0654 | 0.0678 | 0.0609 | 0.0586 | 0.0683 | 0.0887 |  | 0.0462 | 0.07 | 0.064 | 0.0602 |  | 0.072 |  | 
